According to the supplement of paper PMC6531468:
The list shows a part of the results. These are enrichments in a pooled selection; single values are uncertain. Each score is taken over the longer molecules that contain the sequence shown.

How the values were obtained:
Test in all cases: 6-mer SELEX enrichment z-score vs GST control; IMP3 is the RNA-binding protein IGF2BP3; higher = more enriched by binding
IMP3 KH1-4 = conditions: construct: KH1-4 (164-579); SELEX round: R4
Procedure: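 SELEX-seq with GST-tagged IMP3 KH1-4 (Pro164-Lys579) and an N40 RNA pool, round 4. 6-mer z-score of sequence-tag enrichment normalised to the corresponding GST SELEX round; RNA k-mers written as DNA (T for U).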

IMP3 RRM1-2 = conditions: construct: RRM1-2 (1-163); SELEX round: R2
IMP3 RRM1-2, sequence (chain, as listed by the source): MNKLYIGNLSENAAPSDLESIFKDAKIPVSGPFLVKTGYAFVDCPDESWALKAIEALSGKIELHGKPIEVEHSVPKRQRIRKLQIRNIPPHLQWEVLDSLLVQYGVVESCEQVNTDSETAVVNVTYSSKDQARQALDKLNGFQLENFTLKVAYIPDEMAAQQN
Procedure: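 SELEX-seq with GST-tagged IMP3 RRM1-2 (Met1-Asn163) and an N40 RNA pool, round 2. 6-mer enrichment z-score normalised to GST SELEX. RNA written as DNA (T = U).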

IMP3 full-length = IMP3 full-length (UniProt O00425); conditions: construct: FL IMP3 (1-579); SELEX round: R4
UniProt O00425, sequence (O00425 whole entry): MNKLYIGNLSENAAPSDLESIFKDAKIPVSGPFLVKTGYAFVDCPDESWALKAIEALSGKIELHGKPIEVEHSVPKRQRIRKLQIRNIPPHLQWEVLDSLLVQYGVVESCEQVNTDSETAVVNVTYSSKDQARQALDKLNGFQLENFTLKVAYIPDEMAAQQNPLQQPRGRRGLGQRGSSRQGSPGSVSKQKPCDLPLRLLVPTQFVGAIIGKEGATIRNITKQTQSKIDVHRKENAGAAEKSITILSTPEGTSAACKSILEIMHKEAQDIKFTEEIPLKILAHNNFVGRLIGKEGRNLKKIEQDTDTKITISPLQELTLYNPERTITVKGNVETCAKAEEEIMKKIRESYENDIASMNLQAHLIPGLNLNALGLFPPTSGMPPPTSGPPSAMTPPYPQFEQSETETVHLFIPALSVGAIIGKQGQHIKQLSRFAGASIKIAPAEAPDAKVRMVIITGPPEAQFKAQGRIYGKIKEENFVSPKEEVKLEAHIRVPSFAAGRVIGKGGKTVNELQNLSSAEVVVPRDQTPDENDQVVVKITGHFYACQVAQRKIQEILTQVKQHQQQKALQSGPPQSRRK
Procedure: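 SELEX-seq with GST-tagged full-length IMP3 and an N40 RNA pool, round 4. Each 6-mer is scored as an enrichment z-score of sequence tags containing it, normalised to the matching GST SELEX round. RNA written as DNA (T = U).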

IMP3 KH1-2 = conditions: construct: KH1-2 (164-376); SELEX round: R4
IMP3 KH1-2, sequence (chain, as listed by the source): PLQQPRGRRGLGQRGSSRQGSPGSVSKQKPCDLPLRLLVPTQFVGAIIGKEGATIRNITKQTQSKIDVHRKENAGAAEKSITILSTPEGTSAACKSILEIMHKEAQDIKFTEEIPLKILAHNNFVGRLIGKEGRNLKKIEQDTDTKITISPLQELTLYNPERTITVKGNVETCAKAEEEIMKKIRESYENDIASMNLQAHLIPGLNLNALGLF
Procedure: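 SELEX-seq with GST-tagged IMP3 KH1-2 (Pro164-Phe376) and an N40 RNA pool, round 4 (stringent 300/600 mM KCl washes). 6-mer z-score of sequence-tag enrichment normalised to the corresponding GST SELEX round; RNA k-mers written as DNA (T for U).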

IMP3 KH3-4 = conditions: construct: KH3-4 (377-579); SELEX round: R4
IMP3 KH3-4, sequence (chain, as listed by the source): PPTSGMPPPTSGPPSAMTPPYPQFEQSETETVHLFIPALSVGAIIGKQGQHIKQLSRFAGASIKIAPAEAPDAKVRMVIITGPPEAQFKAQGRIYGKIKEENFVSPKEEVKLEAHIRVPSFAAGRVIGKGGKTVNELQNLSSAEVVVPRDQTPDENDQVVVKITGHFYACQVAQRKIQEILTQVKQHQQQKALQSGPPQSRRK
Procedure: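 SELEX-seq with GST-tagged IMP3 KH3-4 (Pro377-Lys579) and an N40 RNA pool, round 4. 6-mer z-score of sequence-tag enrichment normalised to the corresponding GST SELEX round; RNA k-mers written as DNA (T for U).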

IMP3 KH1-4, sequence (chain, as listed by the source): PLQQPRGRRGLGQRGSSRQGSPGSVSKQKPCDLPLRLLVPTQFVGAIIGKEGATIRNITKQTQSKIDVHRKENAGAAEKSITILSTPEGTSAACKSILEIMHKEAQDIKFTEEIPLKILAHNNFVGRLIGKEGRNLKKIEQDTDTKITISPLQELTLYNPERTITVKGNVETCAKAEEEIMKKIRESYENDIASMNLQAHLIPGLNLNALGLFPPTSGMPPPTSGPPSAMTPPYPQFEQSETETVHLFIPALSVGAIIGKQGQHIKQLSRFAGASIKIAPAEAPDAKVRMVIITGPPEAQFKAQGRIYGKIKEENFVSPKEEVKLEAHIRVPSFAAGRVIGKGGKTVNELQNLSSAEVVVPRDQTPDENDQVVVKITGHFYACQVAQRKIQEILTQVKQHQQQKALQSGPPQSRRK

| Sequence | 6-mer SELEX enrichment z-score (IMP3 KH1-4) | 6-mer SELEX enrichment z-score (IMP3 RRM1-2) | 6-mer SELEX enrichment z-score (IMP3 full-length) | 6-mer SELEX enrichment z-score (IMP3 KH1-2) | 6-mer SELEX enrichment z-score (IMP3 KH3-4) |
| --- | --- | --- | --- | --- | --- |
| CACGAA | -0.231 | -0.346 | -0.074 | -0.242 | -0.4 |
| AAGATT | 0.951 | -0.782 | -0.326 | 0.655 | 1.66 |
| GCTCCG | -0.227 | -0.083 | 0.384 | -0.013 | -0.3 |
| CTTTAC | 0.617 | 0.061 | -0.114 | 0.71 | 0.48 |
| GCCTTA | -0.233 | -0.186 | -0.435 | -0.264 | -0.123 |
| GCGCCT | -0.899 | 0.003 | -0.153 | -0.657 | -0.668 |
| ACAGGC | 1.3 | 1.16 | 2.21 | 1.07 | 1.1 |
| GAAACC | -2.06 | -1.78 | -2.15 | -1.9 | -2.18 |
| TTCGAG | -1.45 | 0.115 | -0.595 | -1.22 | -1.07 |
| CTACGG | -0.034 | -0.127 | 0.105 | -0.159 | -0.134 |
| GGGACT | -0.181 | -0.294 | -0.156 | -0.007 | -0.069 |
| CTTACT | 0.487 | 0.118 | -0.114 | 0.487 | 0.367 |
| GTACGT | -0.458 | -0.027 | -0.24 | -0.477 | -0.404 |
| GAGTCA | 0.095 | -0.08 | 0.373 | -0.018 | 0.042 |
| AGCGCC | -1.5 | -0.226 | -0.12 | -1.26 | -1.5 |
| AATCCA | -0.466 | 0.018 | -0.778 | -0.363 | -0.776 |
| GGATGG | 1.14 | -0.103 | 0.487 | 1.07 | 1.12 |
| ACGACA | 0.258 | -0.081 | 0.667 | 0.022 | -0.399 |
| TCCAAG | -0.926 | -0.444 | -0.779 | -0.934 | -0.935 |
| TACGTG | 0.113 | -0.128 | -0.236 | -0.047 | 0.093 |
| TCCAAC | -0.806 | 0.081 | -0.635 | -0.707 | -1.32 |
| CGGCGG | 0.201 | 0.178 | 1.29 | 0.314 | 0.25 |
| AAGACC | -1.57 | -1.84 | -2.01 | -1.36 | -1.73 |
| ATGGTC | 0.259 | 0.207 | 0.369 | 0.16 | 0.214 |
| GCCGTA | -0.748 | -0.381 | -0.188 | -0.615 | -0.592 |
| GCTTCC | 0.091 | 0.118 | 0.043 | 0.071 | -0.203 |
| ACCAAA | -2.29 | -1.18 | -2.48 | -2.14 | -2.65 |
| GGCGGC | 0.981 | 0.359 | 1.77 | 0.981 | 0.959 |

| Sequence | 6-mer SELEX enrichment z-score (IMP3 KH1-4) | 6-mer SELEX enrichment z-score (IMP3 RRM1-2) | 6-mer SELEX enrichment z-score (IMP3 full-length) | 6-mer SELEX enrichment z-score (IMP3 KH1-2) | 6-mer SELEX enrichment z-score (IMP3 KH3-4) |
| --- | --- | --- | --- | --- | --- |
| ATCCCT | 0.052 | -0.186 | -0.444 | -0.068 | -0.447 |
| CCTTTT | 0.709 | 0.117 | -0.037 | 0.665 | 0.632 |
| AGGTCG | 0.445 | 0.223 | 0.88 | 0.42 | 0.557 |
| TGTGTT | 0.169 | 0.434 | -0.139 | 0.086 | 0.236 |
| AAGTCG | 0.807 | -0.119 | 0.696 | 0.399 | 0.579 |
| TAACGG | 0.297 | -0.477 | -0.145 | -0.019 | 0.49 |
| ATGCTT | 0.325 | 0.137 | 0.066 | 0.301 | 0.422 |
| GTTGGG | 0.051 | 0.39 | 0.297 | 0.242 | 0.305 |
| ACATCC | -0.011 | 0.68 | 0.653 | 0.024 | -0.94 |
| GGACAG | 1.26 | -0.556 | 0.82 | 1.1 | 0.744 |
| GGTTTT | 0.098 | 0.453 | 0.092 | 0.115 | 0.374 |
| GACACG | -0.003 | -0.434 | 0.355 | -0.116 | -0.342 |
| CTTTGG | -0.203 | 0.358 | 0.028 | -0.107 | -0.018 |
| ACCACT | 0.191 | 1.05 | -0.189 | 0.194 | -0.337 |
| AATACG | 0.912 | -1.04 | -0.188 | 0.455 | 0.817 |
| AGCCCA | -1.62 | -0.595 | -0.919 | -1.43 | -1.84 |
| ATCAAA | 0.24 | 1.16 | 0.864 | 0.352 | 0.439 |
| GGTAGA | -0.224 | -0.034 | -0.081 | -0.113 | 0.048 |
| AGGCTT | 0.19 | 0.46 | 0.406 | 0.228 | 0.59 |
| CATCGA | -0.844 | 0.306 | 0.37 | -0.942 | -1.13 |
| GGGCCC | -0.884 | -0.093 | 0.205 | -0.506 | -0.816 |
| ACCGCT | 0.181 | -0.381 | -0.03 | 0.588 | -0.151 |
| CCTGTT | 0.004 | -0.041 | -0.276 | -0.043 | -0.153 |
| CAGCTC | -0.124 | 0.505 | 0.598 | -0.036 | -0.333 |
| GAGCCT | -1.36 | -0.537 | -0.663 | -1.2 | -1.2 |
| AACCAT | 0.532 | 1.52 | 0.416 | 0.66 | 0.127 |
| AGGTGT | -0.117 | 0.271 | 0.057 | -0.047 | 0.122 |
